The other results are listed elsewhere or left out. The full chains were built here from the parent and the listed change. Values near 0.05 are background.
B1: TEV protease; numbered along this chain (parent)
chain: MGESLFKGPRDYNPISSSICHLTNESDGHTTSLYGIGFGPFIITNKHLFRRNNGTLVVQSLHGVFKVKDTTTLQQHLVDGRDMIIIRMPKDFPPFPQKLKFREPQREERICLVTTNFQTKSMSSMVSDTSCTFPSGDGIFWKHWIQTKDGQCGSPLVSTRDGFIVGIHSASNFTNTNNYFTSVPKNFMELLTNQEAQQWVSGWRLNADSVLWGGHKVFMVKPEEPFQPVKEATQL

Variants of: B1
Assay: raw area under fraction-flipped curve 0-4 h after induction (AUC4h, not background-subtracted), DNA-recorder readout of cleavage of the substrate (dimensionless); higher = more cleavage of the substrate by the protease variant
Conditions: temperature: 34 °C; time window: 0-4 h after rhamnose induction
Procedure: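 In vivo DNA recorder in E. coli TOP10(DE3) ΔrhaA at 34 °C. Each TEVp single-site mutant (parent TEVp 0) is paired with a single-site variant of the 7-mer TEVs (canonical ENLYFQ|S). The substrate sits between flexible linkers in a Bxb1-sfGFP-TEVs-SsrA fusion, so cleavage stabilises Bxb1 and speeds flipping of a recombination array, read by NGS. The value is the raw area under the fraction-flipped curve over 0-4 h after rhamnose induction (AUC4h), with ≥20 reads per time point. It is not background-subtracted; inactive controls average about 0.047.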
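Further: Bxb1 expression induced with 0.2% (w/v) L-rhamnose at OD600 near 0.5, cultures sampled hourly, flipped fraction per protease–substrate barcode pair counted by paired-end Illumina sequencing.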

Row | Variant | area with substrate ENLAFQS | area with substrate ENLCFQS | area with substrate ENLDFQS | area with substrate ENLFFQS | area with substrate ENLHFQS | area with substrate ENLKFQS | area with substrate ENLLFQS | area with substrate ENLNFQS | area with substrate ENLPFQS | area with substrate ENLQFQS | area with substrate ENLRFQS | area with substrate ENLSFQS | area with substrate ENLWFQS | area with substrate ENLEFQS | area with substrate ENLGFQS | area with substrate ENLIFQS | area with substrate ENLMFQS | area with substrate ENLTFQS | area with substrate ENLVFQS
1 | P9R | 0.0678 | 0.0716 | 0.0516 | 0.0967 | 0.0788 | 0.0794 | 0.0903 | 0.0532 | 0.0625 | 0.0686 | 0.0598 | 0.0647 | 0.0762 | – | – | – | – | – | –
2 | V220G | 0.0593 | 0.0488 | 0.0635 | 0.0862 | 0.0702 | 0.107 | 0.0812 | – | – | 0.0629 | – | 0.0624 | – | 0.0591 | 0.0602 | 0.0938 | 0.0752 | 0.0664 | 0.0906
3 | Y179S | 0.0561 | – | 0.0591 | 0.071 | 0.0552 | 0.0783 | – | – | 0.0552 | 0.0649 | – | 0.0688 | – | 0.0838 | – | 0.0779 | – | – | –
4 | I167R | 0.0401 | 0.0671 | – | 0.0593 | 0.0405 | 0.0499 | 0.0434 | 0.0609 | – | – | 0.0266 | 0.054 | – | – | 0.0452 | 0.0551 | – | – | –
5 | E189N | 0.0543 | – | 0.0509 | 0.0729 | 0.0626 | 0.0841 | – | 0.0598 | 0.0673 | 0.077 | 0.077 | 0.0698 | 0.0497 | 0.062 | 0.0626 | 0.0897 | – | – | –
6 | Y12C | 0.0755 | – | 0.0617 | 0.078 | 0.057 | 0.0791 | 0.0695 | 0.0696 | 0.059 | 0.0716 | 0.0843 | 0.0597 | 0.0376 | – | – | 0.0932 | 0.0698 | – | –
7 | Y179R | 0.0689 | – | 0.0688 | 0.0761 | 0.0535 | 0.0886 | 0.0642 | 0.0675 | – | 0.0648 | – | 0.0549 | – | 0.0651 | – | 0.0578 | – | – | –
8 | N175G | 0.0611 | – | 0.0625 | 0.0933 | 0.0694 | 0.0481 | 0.0958 | 0.0896 | – | 0.0733 | 0.0742 | 0.0715 | 0.051 | 0.0621 | – | 0.0779 | 0.0536 | – | 0.067
9 | E189T | 0.0635 | – | 0.065 | 0.112 | 0.0605 | 0.0767 | 0.0653 | 0.0584 | 0.0586 | 0.0316 | 0.0784 | 0.0513 | 0.0714 | 0.0746 | 0.0721 | 0.0857 | – | – | –
10 | T30R | 0.0567 | 0.0841 | 0.0667 | 0.0871 | – | 0.0764 | 0.0594 | 0.0504 | 0.0572 | – | 0.0747 | – | – | – | – | 0.0683 | – | – | 0.0783
11 | P225K | 0.0751 | 0.13 | 0.0512 | 0.0858 | 0.073 | 0.111 | 0.0767 | – | 0.0676 | 0.059 | – | 0.0775 | 0.0649 | 0.0643 | – | – | – | – | –
12 | V183P | 0.0633 | 0.0772 | 0.0611 | 0.0659 | 0.0506 | 0.0603 | 0.054 | 0.0402 | 0.042 | 0.0574 | – | 0.0651 | 0.0603 | 0.121 | – | 0.0971 | – | – | –
13 | D11F | 0.0456 | 0.0725 | 0.0661 | 0.079 | 0.071 | 0.0662 | 0.0731 | 0.0677 | – | 0.11 | 0.0709 | 0.0418 | 0.0616 | 0.0778 | 0.0778 | 0.087 | – | – | 0.129
14 | F49Y | 0.057 | 0.0601 | 0.0644 | 0.0711 | – | 0.0667 | 0.0685 | 0.0694 | 0.0669 | – | 0.0568 | – | 0.0561 | – | 0.0696 | – | – | – | 0.0503
15 | V183A | 0.0451 | 0.0655 | 0.0595 | 0.076 | 0.0676 | 0.0653 | – | 0.0581 | 0.0312 | 0.0533 | 0.0706 | 0.0555 | – | – | 0.059 | 0.0777 | 0.0736 | – | –
16 | S18Q | 0.0722 | 0.102 | 0.0956 | 0.0926 | 0.0588 | 0.0934 | 0.0862 | 0.068 | 0.0505 | – | 0.103 | 0.0707 | 0.0734 | 0.0699 | 0.0752 | 0.0848 | – | – | 0.1
17 | Q151Y | 0.0693 | 0.0585 | 0.0494 | 0.0652 | 0.0813 | 0.0559 | – | 0.0696 | 0.0532 | 0.0765 | 0.0749 | 0.0585 | – | 0.0722 | – | – | – | 0.0817 | 0.0931
18 | T174K | 0.0551 | – | 0.05 | 0.0983 | – | 0.0885 | – | 0.0604 | 0.0524 | – | – | – | – | – | – | – | 0.0714 | – | –
19 | G166W | 0.0463 | – | 0.0533 | 0.053 | 0.0481 | 0.0637 | 0.0449 | – | 0.0574 | 0.0396 | 0.0511 | – | 0.0561 | 0.0535 | – | 0.0538 | 0.0662 | – | 0.0554
20 | T233E | 0.0643 | 0.0835 | 0.0638 | – | – | 0.0859 | – | – | – | 0.0455 | – | – | – | – | 0.0659 | – | – | – | –
21 | Q194H | 0.0548 | – | – | 0.114 | 0.0574 | 0.072 | – | 0.0795 | 0.0539 | 0.0859 | 0.0853 | 0.0858 | 0.0733 | 0.055 | – | – | 0.0698 | – | 0.0812
22 | R109L | 0.0722 | 0.0601 | – | – | 0.0657 | – | – | 0.0652 | 0.0496 | 0.0508 | – | – | – | 0.0523 | – | 0.0666 | 0.0619 | – | 0.102
23 | K185M | 0.064 | – | 0.0652 | – | 0.0657 | 0.0773 | 0.0874 | 0.0574 | 0.0492 | – | 0.0776 | 0.0748 | 0.077 | 0.0625 | – | – | 0.0525 | 0.0763 | –
24 | G162F | 0.065 | 0.0626 | 0.0605 | 0.0731 | 0.0624 | 0.0652 | 0.0753 | 0.0471 | 0.0589 | 0.0599 | 0.0621 | 0.061 | – | 0.0842 | 0.053 | 0.0684 | – | – | 0.0617
25 | S135N | 0.0604 | 0.0578 | 0.0673 | 0.0689 | – | 0.0519 | 0.0599 | 0.0541 | 0.0448 | 0.073 | – | 0.0494 | 0.078 | 0.0619 | – | – | – | – | –
26 | G63T | 0.0712 | 0.0675 | 0.0641 | 0.0831 | 0.064 | 0.0712 | – | 0.0622 | 0.0703 | – | – | – | 0.0646 | 0.0586 | 0.0775 | 0.103 | 0.0628 | – | –
27 | F49Q | 0.0668 | 0.0613 | 0.0612 | 0.0674 | – | 0.0572 | 0.0493 | 0.0577 | – | 0.0662 | 0.0593 | 0.061 | 0.0487 | 0.0476 | – | – | – | – | –
28 | Q227W | 0.0459 | – | 0.0579 | – | 0.0833 | 0.0785 | – | 0.0782 | – | 0.0761 | – | – | 0.0404 | – | – | 0.0708 | 0.0677 | 0.0684 | –
